Assay results: paper PMC7819943, “Rice protein-binding microarrays: a tool to detect cis-acting elements near promoter regions in rice”
Some of the results follow.

Biological target: T1, OsWOX13 (Oryza sativa, UniProt Q5QMM3 1-267)
T1 sequence: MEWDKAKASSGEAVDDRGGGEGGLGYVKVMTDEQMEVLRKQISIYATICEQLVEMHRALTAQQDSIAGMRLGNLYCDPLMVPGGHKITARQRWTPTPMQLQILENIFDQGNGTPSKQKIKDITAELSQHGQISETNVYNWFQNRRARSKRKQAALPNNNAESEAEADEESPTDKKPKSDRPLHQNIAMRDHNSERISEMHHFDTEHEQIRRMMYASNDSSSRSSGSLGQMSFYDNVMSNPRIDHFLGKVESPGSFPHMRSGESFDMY
Assay: protein-binding microarray (RPBM); PBS, 2% BSA, 51.3 ng/ul salmon testes DNA, 50 uM zinc acetate, 200 nM TF, 25 C, 1 h; high values mean tight binding
Conditions: protein: recombinant; tags: N-terminal polyhistidine and DsRed monomer fusion (pET32a); label: CyDye5-dUTP incorporated in the synthesized complementary strand; 3' TTTTT single-stranded linker to array surface; dsDNA, one strand shown
Procedure, shortened: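 The binding signal is fluorescence intensity per array feature (arbitrary units). Readings came from an Axon 4000B scanner after a washed, 2% BSA-blocked, double-stranded custom Agilent array had been incubated for 1 h at 25 °C with 200 nM protein and 50 µM zinc acetate. The protein was a Ni–NTA-purified transcription factor fused N-terminally to polyhistidine and DsRed, expressed in E. coli BL21-CodonPlus.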

Sequence | binding signal
ATTAATTTTCTCGCTGGTAATTAACTTGCATGTGCACGTCCGGAGTCACCTAGTGCAG | 11800 fluorescence intensity (a.u.)
CGACGATGTAAATTTATACTTTCGTTCTTCTGAAGTTGGCCGGAGTCACCTAGTGCAG | 3850 fluorescence intensity (a.u.)
AATTACCAAACTGAATAATGAATGAACGAACCATTACAGGCGGAGTCACCTAGTGCAG | 3300 fluorescence intensity (a.u.)
GCAAATTTGGATTGTGCCTCACTTTAGTGAGTTGATGACACGGAGTCACCTAGTGCAG | 5730 fluorescence intensity (a.u.)
GTCCAAAATTAGTTTTACTAATCTATGTTGTTGGACTTAACGGAGTCACCTAGTGCAG | 5520 fluorescence intensity (a.u.)
ATAATGGAATTAAATCCAGCCTATTGTGAGACACGTGTAGCGGAGTCACCTAGTGCAG | 4690 fluorescence intensity (a.u.)
GCTACATGCTAATTGTGTATATCTAACATGCGCTGACGGCCGGAGTCACCTAGTGCAG | 3710 fluorescence intensity (a.u.)
TAGCTGGTTGACAGATTCATCAGTGATGTGGATCAACATGCGGAGTCACCTAGTGCAG | 3670 fluorescence intensity (a.u.)
GGTGAATAATTATAGAACCGAAGGTTGCATGACCTCAACTCGGAGTCACCTAGTGCAG | 4430 fluorescence intensity (a.u.)
ACCTTCAAACAGCAACAAATTGACCCGCACCACTGGGACACGGAGTCACCTAGTGCAG | 4920 fluorescence intensity (a.u.)
GATCGAAATAGACTGAACTCGCCTCAGGTTCGTTCCACCACGGAGTCACCTAGTGCAG | 4680 fluorescence intensity (a.u.)
ATAATGGCATAATTTAAATTTTACAAAATACTTATGACACCGGAGTCACCTAGTGCAG | 12600 fluorescence intensity (a.u.)
AAGGTTGAAAAGTTGATTGAAGAGCATTAAACTTAAACCTCGGAGTCACCTAGTGCAG | 29200 fluorescence intensity (a.u.)
AAAATCATTAGTGTTAACAAAGTTTAGATGTTGGAAGCATCGGAGTCACCTAGTGCAG | 5690 fluorescence intensity (a.u.)
ACTTAATTAACTATACGTTACTAGTTTCTCGTTTTACATGCGGAGTCACCTAGTGCAG | 48000 fluorescence intensity (a.u.)
AACGCAATCAGTGGGAGATCAATCGCAAAATCACCATCATCGGAGTCACCTAGTGCAG | 11000 fluorescence intensity (a.u.)
ATACATAACTCACCAATTATAGAACCAACAATTACATAACCGGAGTCACCTAGTGCAG | 4630 fluorescence intensity (a.u.)
TATTAAATATAGATTAATTACAAAACCTATTCCATAATCTCGGAGTCACCTAGTGCAG | 9640 fluorescence intensity (a.u.)
ACCCACCATCAATCAGCTCTCACACAAGCCCAATACGGCACGGAGTCACCTAGTGCAG | 11600 fluorescence intensity (a.u.)
TGTAACAGATAAACTGATGAAGGAACTTGTGATAGAAACTCGGAGTCACCTAGTGCAG | 8670 fluorescence intensity (a.u.)
ATTAGATAATTATCGTTAAACTGTTATCCCTTCTTCCTATCGGAGTCACCTAGTGCAG | 50300 fluorescence intensity (a.u.)

Sequence | binding signal
CGCTCGATTATGTGGGATTAGGTAGATGAGGGCGGCGCTGCGGAGTCACCTAGTGCAG | 3420 fluorescence intensity (a.u.)
CATGATTTACCACATTTCAGTTTTAGCACAGGACACATTTCGGAGTCACCTAGTGCAG | 17800 fluorescence intensity (a.u.)
GAAGCTTTGACAGATTGCCCTGACCTTTTGGTGTGTAACACGGAGTCACCTAGTGCAG | 10700 fluorescence intensity (a.u.)
TGTATTTAATTAGTTTGACAGAAACAAATTTGCTCAGTTACGGAGTCACCTAGTGCAG | 37100 fluorescence intensity (a.u.)
CTTAATCAAACTGAACTTTTGCCAACTTCCATTTTACAACCGGAGTCACCTAGTGCAG | 4290 fluorescence intensity (a.u.)
AAATTAGACAGGAAGTTCCGAACCTGGAATACAGGAATTTCGGAGTCACCTAGTGCAG | 16800 fluorescence intensity (a.u.)
CATGATTAATTAAATATTAACGATCATAAATTTGAAAATTCGGAGTCACCTAGTGCAG | 29300 fluorescence intensity (a.u.)
ACGTAATTACTTCAAAATGATTTTACTGCTTCGCAATTACCGGAGTCACCTAGTGCAG | 42000 fluorescence intensity (a.u.)
GTCAAACCAATTAACTATCGAACCGAGGGCCGCCGGTTCACGGAGTCACCTAGTGCAG | 4450 fluorescence intensity (a.u.)
ACTTGTTTTACGTTCGGCTAATTAGCTGTTTGACCGTTTCCGGAGTCACCTAGTGCAG | 6740 fluorescence intensity (a.u.)
TCTCAATCAACAGCCGTTCATTCACCCACCGAACAATCACCGGAGTCACCTAGTGCAG | 18900 fluorescence intensity (a.u.)
ATTAAATAAATTGTAGATGATGTTGTATGCTTGTATGGGTCGGAGTCACCTAGTGCAG | 20800 fluorescence intensity (a.u.)
ATCAGTGAAACTAATTAATATCCATATCTGCAATTCTCGTCGGAGTCACCTAGTGCAG | 3290 fluorescence intensity (a.u.)
TCCCTTAATAGAGGGTTTCCAAACTATATGGGTGATTTGTCGGAGTCACCTAGTGCAG | 4010 fluorescence intensity (a.u.)
GCTCACATCTATAACTAATCATTGATTCGGCATACTCATTCGGAGTCACCTAGTGCAG | 13000 fluorescence intensity (a.u.)
GAAAATTATACTATGACAACAATATACTTGAGGTGATATCCGGAGTCACCTAGTGCAG | 3320 fluorescence intensity (a.u.)
AGTGACAGTCTGACAGACAATTCAGAGTGAACAACATTCTCGGAGTCACCTAGTGCAG | 10500 fluorescence intensity (a.u.)
ATTTTAAATAAATAATAATAATTTATGTCATCTAAACATACGGAGTCACCTAGTGCAG | 7590 fluorescence intensity (a.u.)
CTAAATTTAAACTTTTCACTCAATTGAAACTTTTCAAATTCGGAGTCACCTAGTGCAG | 9300 fluorescence intensity (a.u.)
TCAATAACCATTAATTACCATCCCCACAGTCTTCTCGTGGCGGAGTCACCTAGTGCAG | 10900 fluorescence intensity (a.u.)
TAAAATTAATTACTCCGCTCATATGGATACATCGCCGCCTCGGAGTCACCTAGTGCAG | 31900 fluorescence intensity (a.u.)

Sequence | binding signal
GGGATAATTGTTCAGTCTTAGGCGAGCACAGATTTATCATCGGAGTCACCTAGTGCAG | 16100 fluorescence intensity (a.u.)
GTATAGTCTCTCCAATCAAATTTATTTGATGTTGAAAAGGCGGAGTCACCTAGTGCAG | 10700 fluorescence intensity (a.u.)
CCCAATTATGTTGGATCAATTTGACTATTTGACATATGCACGGAGTCACCTAGTGCAG | 12600 fluorescence intensity (a.u.)
CTGACTTTGTCATACGTCTATGATTTGCCACTGACTTTATCGGAGTCACCTAGTGCAG | 4530 fluorescence intensity (a.u.)
CTAGTGGATTGATTCCTGGTCTCTTATTGTCCCTATCATGCGGAGTCACCTAGTGCAG | 31600 fluorescence intensity (a.u.)
TTAATTAGTGGATAATGATGTGGCATCTTTGCATGTTAAGCGGAGTCACCTAGTGCAG | 30300 fluorescence intensity (a.u.)
GTTTGAACCAAATCTTAATTGATAAATTGCACCGGAGCAGCGGAGTCACCTAGTGCAG | 20200 fluorescence intensity (a.u.)
TTTGTGATTTTCCAAAGAATTAATCTTCGAGTGGGCTAAGCGGAGTCACCTAGTGCAG | 3260 fluorescence intensity (a.u.)
CGCAACATGATATCTATCAGTGGAGGATTGAGTAGCTGCACGGAGTCACCTAGTGCAG | 3780 fluorescence intensity (a.u.)
GCTAACAAATTATATTCGGCAACTAGGTGCAAGTGTTGGGCGGAGTCACCTAGTGCAG | 12000 fluorescence intensity (a.u.)
ACAGCAAGAAATTACTTTCAAATTGATCTGTGATGTGCCACGGAGTCACCTAGTGCAG | 6440 fluorescence intensity (a.u.)
ATTTAATTATTACCACTAACATAATAGGAAGGTACAGGGGCGGAGTCACCTAGTGCAG | 20800 fluorescence intensity (a.u.)
AATATTTCTGATTGAGGATTTCATTTCCGATCTGTAGAAACGGAGTCACCTAGTGCAG | 16100 fluorescence intensity (a.u.)
TCGTTTTAATTGACCACGTACTCAATCCGGTACTCTCCTTCGGAGTCACCTAGTGCAG | 20600 fluorescence intensity (a.u.)
TGTTTGGATGATTTTATGGATGATCACTTCTCTTTATTTACGGAGTCACCTAGTGCAG | 3280 fluorescence intensity (a.u.)
ATTGGATTGGTTAAAATTTTAATGTTAATTTATATAATTTCGGAGTCACCTAGTGCAG | 12200 fluorescence intensity (a.u.)
ACACCATCACGTGAGTTGATTTGCCCTGATTTTCGAAGATCGGAGTCACCTAGTGCAG | 17500 fluorescence intensity (a.u.)
TTTTGATTTGAGAAAATCGCGTGTTCTTTTGGAGGGAAGACGGAGTCACCTAGTGCAG | 11400 fluorescence intensity (a.u.)
CAAGTGTGAATGCCAATCATAGCTCGATCGGATTGGATTCCGGAGTCACCTAGTGCAG | 24200 fluorescence intensity (a.u.)
AGTAAACTGGTTTTCAGAATTGCAGCACTAGAGTGGTGTGCGGAGTCACCTAGTGCAG | 5260 fluorescence intensity (a.u.)
TAAATTTGAATATAAATTTCGATGGAATAACTTAGACTTGCGGAGTCACCTAGTGCAG | 4900 fluorescence intensity (a.u.)

Sequence | binding signal
ACTTAAAGCGATAATTATTTTAGGATGGATGTAGTATGTACGGAGTCACCTAGTGCAG | 3510 fluorescence intensity (a.u.)
TACTGCATGATTATTAAGTAGGGATCACCATCTGCTTATTCGGAGTCACCTAGTGCAG | 5940 fluorescence intensity (a.u.)
TTAGATAAGATAGACTGCGATAATATAAGATACTATACAACGGAGTCACCTAGTGCAG | 3470 fluorescence intensity (a.u.)
AATGATAAATGATATGCAGCCGATCTATGATGGAGCAGCTCGGAGTCACCTAGTGCAG | 9020 fluorescence intensity (a.u.)
CTTAATTAGCTCGGAAGCCTTTTCACTTTTCAGCCATGAGCGGAGTCACCTAGTGCAG | 44500 fluorescence intensity (a.u.)
ACTAATTACTGAACTATCATGCATGCATGCAGTACACATTCGGAGTCACCTAGTGCAG | 30600 fluorescence intensity (a.u.)
AATTTGTAATTTTATTTCTTAGATTATCGGTATTGACATACGGAGTCACCTAGTGCAG | 4480 fluorescence intensity (a.u.)
CCACAATTTTGCATAATTACTGGTAAGATTTATGACATCACGGAGTCACCTAGTGCAG | 17200 fluorescence intensity (a.u.)
TCATATTGATGTTAATGAAACTACATCTATTTAAGTTTCACGGAGTCACCTAGTGCAG | 14500 fluorescence intensity (a.u.)
GCATGTGATTAATCGGTGATTATGTCTTAATGGAAGGAAACGGAGTCACCTAGTGCAG | 28200 fluorescence intensity (a.u.)
CTCAAAAGTTAATCACTAATTTGACTACACACTTTCAGAACGGAGTCACCTAGTGCAG | 10900 fluorescence intensity (a.u.)
AGCCTCTGACATCTCAATCACATGATCATGAGTGGTTTTCCGGAGTCACCTAGTGCAG | 16800 fluorescence intensity (a.u.)
CTTTTATAAACTTATTTAAATTTAAACAAGTTTAACTAAGCGGAGTCACCTAGTGCAG | 7130 fluorescence intensity (a.u.)
TTGATTGTGTGTGGAAGATCAATCCAAATATGTTCATTTCCGGAGTCACCTAGTGCAG | 8930 fluorescence intensity (a.u.)
ATGTGAAATTGAATGCAGTAGTATGCACATGAAACTTGGGCGGAGTCACCTAGTGCAG | 11300 fluorescence intensity (a.u.)
CTATAATTTTACGGAAGAGCCCCTGCTTTAACCTGTATTTCGGAGTCACCTAGTGCAG | 4380 fluorescence intensity (a.u.)
GCTCTGTTCTTCTCTGTTCTTCTCTATTCCTTCCAAATTCCGGAGTCACCTAGTGCAG | 8290 fluorescence intensity (a.u.)
GGATTGGGATTGAGAAATGAATGAAGGGTTAGAATTAAATCGGAGTCACCTAGTGCAG | 6360 fluorescence intensity (a.u.)
GTAATAATTGTATCAAAATTGATGAAAGTAGAAAATAATTCGGAGTCACCTAGTGCAG | 22600 fluorescence intensity (a.u.)
ATTAATTACGCGCTAATCGTTGCTCCGTTTTCCGTGCAAACGGAGTCACCTAGTGCAG | 11400 fluorescence intensity (a.u.)
AATAATTTTCTTTTGTCACACTGTTTCTTCTCTAATCTATCGGAGTCACCTAGTGCAG | 5890 fluorescence intensity (a.u.)
